# PubChem BioAssay AID1240 (Sanford-Burnham Center for Chemical Genomics, 2008)
# The whole screen tested about 50,000 compounds, of which about 800 (1.6%) showed an effect of 50% or more. The list shows a part of the results.
# Molecular target: Bcl-2-like protein 10 (Homo sapiens) (UniProt Q9HD36)
# Assay: Phenotype converters, Bcl-B/TR3 peptide binding displacement, primary biochemical FP (AID 1240);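 further: 0% = Bcl-B with tracer peptide and DMSO and 100% = tracer peptide lacking Bcl-B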
# Settings: GST-Bcl-B / FITC-TR3 peptide fluorescence polarization; stronger effect = higher value; compound at 3.75 mg/L
# Sequence of UniProt Q9HD36 (Q9HD36 whole entry, looked up): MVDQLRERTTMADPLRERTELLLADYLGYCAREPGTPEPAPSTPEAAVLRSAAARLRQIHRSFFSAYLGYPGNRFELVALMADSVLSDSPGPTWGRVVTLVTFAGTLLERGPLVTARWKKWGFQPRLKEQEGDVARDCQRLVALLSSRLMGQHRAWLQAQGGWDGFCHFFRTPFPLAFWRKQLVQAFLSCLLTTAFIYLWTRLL
row,SMILES,displacement [%]
1,CCCOc1cccc(-c2nc3cc(OC)c(OC)cc3c(=O)o2)c1,0.4
2,O=C(/C=C/c1ccc(Cl)cc1)Nc1ccc(Cc2ccncc2)cc1,-5.8
3,COc1cc(/C=c2\sc3nc4ccccc4n3c2=O)cc(I)c1OCC(=O)O,-4.2
4,COc1cc(-c2noc(/C=C/c3ccccc3)n2)cc(OC)c1OC,17.2
5,Cc1cc([N+](=O)[O-])ccc1N1C(=O)c2ccccc2C1=O,5.9
6,N#C/C(=C\c1ccc(-c2ccccc2[N+](=O)[O-])o1)C(=O)Nc1cccc(Br)c1,-6.3
7,O=Cc1cccc(OCc2ccc(Cl)cc2Cl)c1,3.8
8,C=CCNc1nc(-c2ccccc2)cs1,-26.4
9,Cn1c(-c2cccc(Cl)c2)n[nH]c1=S,13.1
10,Cc1ccc2c(Cl)c(C(=O)Nc3nc(-c4ccccc4)cs3)sc2c1,-16.7
11,O=c1/c(=C\c2ccc(OCc3ccc([N+](=O)[O-])cc3)cc2)sc2nc3ccccc3n12,4.5
12,CC(C)C(C(=O)Nc1ccc(F)cc1)N1C(=O)c2ccccc2C1=O (stereo not given),-5.3
13,Cc1ccc(CSc2nnc(-c3cccc(F)c3)n2-c2ccccc2)cc1,2.8
14,O=C1c2ccccc2NC(c2ccc3c(c2)OCO3)N1Cc1ccccc1 (stereo not given),10.9
15,Cc1cc(C)nc(NS(=O)(=O)c2ccc(NC(=O)c3cc4cc([N+](=O)[O-])ccc4s3)cc2)n1,13.7
16,O=C1ON=C(c2ccccc2)/C1=C\c1ccccc1OCc1ccccc1,-2.2
17,CCOC(=O)C(CCCCOc1ccc(Cl)cc1)C(=O)OCC,8.5
18,COc1ccccc1N1C(=O)NC(=O)/C(=C\c2cc3ccccc3n2C)C1=O,165
19,Cc1cccc(NS(=O)(=O)c2ccc([N+](=O)[O-])cc2)c1C,-13.5
20,COc1ccc(C(=O)NC2CCCCC2)cc1S(=O)(=O)N1CCOCC1,-5.1
21,O=c1[nH]c(=O)n(-c2ccc(Br)cc2)c(O)c1C=C1C=CC=N1,123
22,Cc1cccc(C(=O)Nc2sc3c(c2C(=O)N2CCCCCC2)CCCCC3)c1,-10
23,COc1ccc(-c2cc(C(F)(F)F)n3ncc(C(=O)NC(C)C)c3n2)cc1,0.3
24,CC(=O)CC(=O)Nc1cc(Cl)ccc1C,6.8

row,SMILES,displacement [%]
1,COc1ccccc1C(=O)Nc1ccc(Br)cc1F,-2.7
2,COc1ccc(S(=O)(=O)N2CCN(Cc3ccc(C)cc3)CC2)cc1,-11.9
3,COc1ccc(C2CC(C(F)(F)F)n3nc(C(=O)O)c(Cl)c3N2)cc1OC (stereo not given),2.8
4,Cc1ccc(S(=O)(=O)N2CCN(C(C)C)CC2)cc1,10
5,CSc1nc2c(c(=O)[nH]1)C(c1ccc(Br)cc1)c1c(nc(SC)[nH]c1=O)O2,10.4
6,CCC1(C)Cc2c(sc3[nH]c(=S)n(Cc4ccccc4)c(=O)c23)CO1 (stereo not given),-10.3
7,CCOC(=O)c1c(-c2cc(C)ccc2C)csc1N,-0.4
8,Cc1[nH]nc(Nc2cccc(C(=O)O)c2)c1[N+](=O)[O-],12.7
9,Cc1ccc(N(CC(=O)NCCSc2ccc(Cl)cc2)S(=O)(=O)c2ccc(F)cc2)cc1,-15.1
10,Cc1ccc(S(=O)(=O)NC(=O)Nc2ccc(C)c(Cl)c2)cc1,11.9
11,CCCOC(=O)c1cccc(NC(=O)COc2ccc(Br)cc2)c1,14.6
12,CC(C)CC(C(=O)Nc1sc2c(c1C(N)=O)CCC(C)C2)N1C(=O)c2ccccc2C1=O (stereo not given),6.5
13,CC(=O)OC(OC(C)=O)c1ccc([N+](=O)[O-])s1,8.1
14,C=CCc1c(C)nc(SC)nc1Nc1ccc(C(=O)O)cc1,-10
15,Cc1ccc(/C(N)=N/OC(=O)COc2ccc(Br)cc2)cc1,0.7
16,Cc1onc(-c2c(F)cccc2Cl)c1C(=O)Nc1ccc(Br)cc1,-15.1
17,O=S1(=O)CCC(NC(=S)SCCOc2ccccc2OCCO)C1 (stereo not given),6.3
18,O=[N+]([O-])c1ccccc1-c1ccc(/C=C/c2ccc3ccccc3n2)o1,97.9
19,CCCC(CCC)C(=O)Nc1ccc2c(c1)N(C(=O)CN1CCOCC1)c1ccccc1CC2,-13.1
20,COc1ccccc1N1CC=C(c2cccc([N+](=O)[O-])c2)NC1=O,9.6
21,CC(C)(C)c1ccc(C(=O)Nc2cccc3nsnc23)cc1,14.5
22,Oc1cccc(/C=N/Nc2nncc(-c3ccccc3)n2)c1,6.6
23,COc1ccc(C2/C(=C(/O)c3ccccc3)C(=O)C(=O)N2Cc2ccccc2)cc1OC (stereo not given),-1
24,COc1cc(/C=C2/SC(=S)N(C)C2=O)cc([N+](=O)[O-])c1O,6.5

row,SMILES,displacement [%]
1,O=C(Nc1ccc(N2CCOCC2)cc1)c1ccc(Cl)cc1,6.6
2,Cc1ccnc(NS(=O)(=O)c2cc(C(C)(C)C)cc(C(C)(C)C)c2)c1,-13
3,N#CC1=C(N)Oc2cc(O)c(C=Nc3ccccc3I)cc2C1c1ccccc1 (stereo not given),-1.5
4,O=C(O)c1ccc(Oc2ccc(NC(=O)C3CCCCC3)cc2)cc1C(=O)O,4.7
5,CCC(=O)Nc1cc(OC)ccc1OC,14.2
6,COc1cccc2c1NC(c1ccccc1Br)C1CC=CC21 (stereo not given),-4.2
7,CCOc1ccc(S(=O)(=O)N/N=C/c2c(C)[nH]c(=O)[nH]c2=O)cc1,-4.5
8,O=C(O)C(=O)/C(N=Nc1ccc(Cl)cc1)=C(\O)c1ccc(Cl)cc1,6.8
9,COc1ccc(/C=N/Nc2cc(-n3nc(C)cc3C)nc(C)n2)cc1,-10.7
10,CCOC(=O)C(=CNc1ccc(C(=O)OC)cc1)C(=O)OCC,-2.5
11,O=C(Nc1ncc(Cc2cccc(C(F)(F)F)c2)s1)c1ccccc1Br,-6.1
12,CC1=C(C(=O)OC(C)C)C(c2ccsc2)NC(=O)N1C (stereo not given),-11.5
13,O=C(NCCCN1CCOCC1)c1ccc([N+](=O)[O-])cc1,-1.2
14,Cc1cc(Cl)ccc1NC(=O)CCc1ccccc1,-7.3
15,CC1=C(C(=O)Nc2ccc(Cl)cc2)C(c2ccccc2F)NC(=O)N1 (stereo not given),-13.9
16,Cc1c([N+](=O)[O-])cc2[nH]c(=O)c(=O)[nH]c2c1[N+](=O)[O-],0.4
17,N/C(=N\OC(=O)c1ccc(I)cc1)c1ccncc1,4.3
18,Cn1c(CNC2CCCCC2)nc2ccccc21,-6.3
19,Cc1cc(C)nc(SCc2ccccc2C#N)n1,-3
20,O=c1cccc(-c2cccc([N+](=O)[O-])c2)o1,20.9
21,CCOc1ccc(NC(=O)CC2S/C(=N\N=C3/CCCc4ccccc43)NC2=O)cc1 (stereo not given),11.6
22,Cc1cc(Cl)ccc1N(CC(=O)NCc1ccco1)S(=O)(=O)c1ccccc1,6.8
